Experimental data published in the supplement of paper PMC4604168 (melanoma cell lines).
The other results are listed elsewhere or left out. Most values come without repeats; read them as rough.

Tests used:
Test in all cases: cell count relative to DMSO control; melanoma cells; higher = more viable cells
Details in all cases: library dose: low library concentration; 72 h
[1] = system: WM115
[2] = system: WM1716
[3] = system: WM1745
[4] = system: WM3526
[5] = system: WM3619
[6] = system: WM451Lu
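Note: cell number obtained by counting DAPI-stained nuclei in high-throughput microscope images with image analysis software, screen run in 1,536-well plates.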

Nc1cccc2c1CN(C1CCC(=O)NC1=O)C2=O (configuration not stated) [lenalidomide] + N#Cc1c(O)c2c(-c3ccc(-c4ccccc4O)cc3)csc2[nH]c1=O [A769662] (first compound 1 µM, partner dose 2 µM)
cell count [1]: 83.1%
cell count [2]: 87%
cell count [3]: 87%
cell count [4]: 92.5%
cell count [5]: 98.5%
cell count [6]: 84.8%

O=C(CCCCCCC(=O)Nc1ccccc1)NO [vorinostat] + O=C1NC(=O)/C(=C/c2ccc(-c3ccc(F)cc3O)o2)S1 [AS252424] (first compound 0.08 µM, partner dose 1 µM)
cell count [1]: 102%
cell count [2]: 94.8%
cell count [3]: 93.8%
cell count [4]: 92.2%
cell count [5]: 92.2%
cell count [6]: 93.9%

Cn1c(Nc2ccc(C(F)(F)F)cc2)nc2cc(Oc3ccnc(-c4ncc(C(F)(F)F)[nH]4)c3)ccc21 + NC(=O)Nc1cc(-c2cccc(F)c2)sc1C(=O)N[C@H]1CCCNC1 [AZD7762] (first compound 0.08 µM, partner dose 0.02 µM)
cell count [1]: 31.5%
cell count [2]: 67.6%
cell count [3]: 88.3%
cell count [4]: 54.2%
cell count [5]: 80.9%
cell count [6]: 73.6%

OCc1c[nH]c2ccccc12 [Indole-3-carbinol] + Nc1cccc2c1CN(C1CCC(=O)NC1=O)C2=O [lenalidomide] (first compound 0.8 µM, partner dose 1 µM)
cell count [1]: 107%
cell count [2]: 95.5%
cell count [3]: 92.1%
cell count [4]: 102%
cell count [5]: 89.3%
cell count [6]: 103%

Cn1c(Nc2ccc(C(F)(F)F)cc2)nc2cc(Oc3ccnc(-c4ncc(C(F)(F)F)[nH]4)c3)ccc21 + N#Cc1c(O)c2c(-c3ccc(-c4ccccc4O)cc3)csc2[nH]c1=O [A769662] (first compound 0.08 µM, partner dose 2 µM)
cell count [1]: 62%
cell count [2]: 77.4%
cell count [3]: 58%
cell count [4]: 51.3%
cell count [5]: 99.7%
cell count [6]: 61.8%

Cn1c(Nc2ccc(C(F)(F)F)cc2)nc2cc(Oc3ccnc(-c4ncc(C(F)(F)F)[nH]4)c3)ccc21 + Cn1cc(/C=C2\C(=O)Nc3cccnc32)c2ccccc21 [GW441756] (first compound 0.08 µM, partner dose 0.4 µM)
cell count [1]: 52.3%
cell count [2]: 75.4%
cell count [3]: 75.5%
cell count [4]: 53%
cell count [5]: 59.7%
cell count [6]: 91%

Nc1cccc2c1CN(C1CCC(=O)NC1=O)C2=O (configuration not stated) [lenalidomide] + CC(C)(C)c1cnc(CSc2cnc(NC(=O)C3CCNCC3)s2)o1 [SNS-032] (first compound 1 µM, partner dose 0.01 µM)
cell count [1]: 107%
cell count [2]: 88.1%
cell count [3]: 83.8%
cell count [4]: 110%
cell count [5]: 89.3%
cell count [6]: 108%

COCC[n+]1c2c(n(Cc3cnccn3)c1C)C(=O)c1ccccc1C2=O + O=C1NC(=O)/C(=C/c2ccc(-c3ccc(F)cc3O)o2)S1 [AS252424] (first compound 0.0004 µM, partner dose 1 µM)
cell count [1]: 91.4%
cell count [2]: 96.2%
cell count [3]: 98.4%
cell count [4]: 90.4%
cell count [5]: 120%
cell count [6]: 103%

Clc1ccc(Nc2nnc(Cc3ccncc3)c3ccccc23)cc1 [vatalanib] + CCN(CC)CCCCNc1ncc2cc(-c3cc(OC)cc(OC)c3)c(NC(=O)NC(C)(C)C)nc2n1 [PD173074] (first compound 2 µM, partner dose 0.1 µM)
cell count [1]: 92.1%
cell count [2]: 86.2%
cell count [3]: 96.3%
cell count [4]: 105%
cell count [5]: 109%
cell count [6]: 95%

Nc1cccc2c1CN(C1CCC(=O)NC1=O)C2=O (configuration not stated) [lenalidomide] + Cc1cc([N+](=O)[O-])ccc1NS(=O)(=O)c1cc(Cl)ccc1Cl [FH535] (first compound 1 µM, partner dose 1 µM)
cell count [1]: 88.2%
cell count [2]: 97.6%
cell count [3]: 89.8%
cell count [4]: 96.4%
cell count [5]: 108%
cell count [6]: 125%

C#Cc1cccc(Nc2ncnc3cc(OCCOC)c(OCCOC)cc23)c1 [erlotinib] + Cn1cc(/C=C2\C(=O)Nc3cccnc32)c2ccccc21 [GW441756] (first compound 0.8 µM, partner dose 0.4 µM)
cell count [1]: 101%
cell count [2]: 99.6%
cell count [3]: 73.6%
cell count [4]: 98.3%
cell count [5]: 98.8%
cell count [6]: 111%

O=C(CCCCCCC(=O)Nc1ccccc1)NO [vorinostat] + COC(=O)c1sccc1S(=O)(=O)Nc1ccc(Nc2ccccc2)cc1OC [GSK0660] (first compound 0.08 µM, partner dose 1 µM)
cell count [1]: 89%
cell count [2]: 112%
cell count [3]: 105%
cell count [4]: 96.7%
cell count [5]: 118%
cell count [6]: 95.1%
